Sequences and labels used below:
B1: chr11:87794696:87794697:-_ENSMUSG00000020483_ENSMUST00000020775|mus_mus|FALSE|FALSE (ssRNA)
RNA: GGGAGUUCUACAGUCCGACGAUCGGCCUUUUAUUUUUAUCUAGGGAGAGAAGAGAAAAGGAGGGGUAGGAGAGAUUUCCUAGUGCAGUACAACCAAAAAAAUAAUGUUAACGUCUUAAAAACAAACGCAAAGCAGCCUUCUUCCAACAGAGGAUUGAGCAUCA
B2: chr8:127197416:127197417:-_ENSMUSG00000037300_ENSMUST00000118134|mus_mus|FALSE|FALSE (ssRNA)
RNA: GGGAGUUCUACAGUCCGACGAUCUUUUGCUAUUUUGCUGAAGGCCUCUGAGCCAGGGGCUGUCAUGGCUUCAAAGUCGACUAACUGGAAAAGAGGAGGCGCAGGACGUGAUAAAAGGAAGGAAAUGGUGUGGGGUCUAGCUCGCAACAGAGGAUUGAGCAUCA
B3: chr3:32582686:32582687:-_ENSG00000144635_ENST00000273130|hu_mus|FALSE|FALSE (ssRNA)
RNA: GGGAGUUCUACAGUCCGACGAUCUCGCUGAGGGGAGGCUGGGAAGUCUUCUCCUGGCUCCACGUACUCUUGGAAGUCUCUAAUCAACUUCUGCUCCAUUUCCUUCAUCUCUUCAGGGGGGAUUUUCAGCUUGUCGACAUGUUCCAACAGAGGAUUGAGCAUCA
B4: 47662921_47675070_133_3pUTR_ENSG00000124207_ENST00000262982|human|control|control (ssRNA)
RNA: GGGAGUUCUACAGUCCGACGAUCCAGGAUCAGGAUCAAGUGUUUUCUUUAAAUAUUCUGUUAGUGUUUGCAGAUUUGCAUCGCUGAGUUCCAUUGCUAUAGGAUCUCGUGGGGAUACAGAAACGGAGGAGGGAACCCCAGCCGCAACAGAGGAUUGAGCAUCA
B5: chr10:33190432:33190433:-_ENSG00000150093_ENST00000302278|hu_mus|hu_hu_hu_mus_True|78_98 (ssRNA)
RNA: GGGAGUUCUACAGUCCGACGAUCUACAUUUUCCAAACCUGCACAUGAAUAAAACCCUGGCAAUAUUGCCCCAAAACUACCCUACUGUGACUAAGAUGCUGCUGCUGUGAGCUUGGUGUUGCAAAAUCCGCCUGAGUAGGAUUCCAACAGAGGAUUGAGCAUCA
B6: chr3:95061978:95061979:-_ENSMUSG00000015711_ENSMUST00000015855|mus_mus|motif|central (ssRNA)
RNA: GGGAGUUCUACAGUCCGACGAUCUCGUUCCAGGAUGCCACAGAUUGUCAUUCGAAGUGCCUCGUGUGGACAGAAGAUAGCGGAUUGCCGUACUGGCUCAUUUUGAGUGUUGAAAAAGAUAGUCAUGGCAACCAGGGCAUCAUACAACAGAGGAUUGAGCAUCA
B7: 42744061_42749184_606_CDS_ENSG00000103994_ENST00000263805|human|control|control (ssRNA)
RNA: GGGAGUUCUACAGUCCGACGAUCGUCUUGGUAAGGAAUUCGGUCUUCUCGUCUCCAUUGGGGUCGUCUGUCAUCAGAGUUUAUUUCUUGGUUGCUAUUGGAAGGUUCAUCUUGUCGACUUUGUUCUUUCCUUUGUUUUAUUAACAACAGAGGAUUGAGCAUCA
B8: chr6:83912004:83912005:+_ENSMUSG00000030016_ENSMUST00000032088|mus_mus|FALSE|FALSE (ssRNA)
RNA: GGGAGUUCUACAGUCCGACGAUCUAAGUUGUAAAUUUCUUCUGUAGAAUAUCCUUUGUUAGGCAAAUUAGAAAUAAAUACUACACUCAUUUCCUCCGAUUCCUUGUUCACUGGUUCCUUUUCUGUGGCCUCCAAAGUACCUGACAACAGAGGAUUGAGCAUCA
B9: 55563855_55566620_2091_CDS_ENSG00000115355_ENST00000336838|human|control|control (ssRNA)
RNA: GGGAGUUCUACAGUCCGACGAUCUUCAAGCUGAGCUUUCUCCUUCAUUAGAUCCUUGCUUAAAUUCUGACAAUUCUGAAGACUUUGCUUUUCUUGAACAAUCUCAUUUUCAAGAAUCUCAACCUUUUUACUGAGCCUUUGAUUCAACAGAGGAUUGAGCAUCA
B10: chr4:155069534:155069535:+_ENSMUSG00000074738_ENSMUST00000099265|mus_mus|motif|central (ssRNA)
RNA: GGGAGUUCUACAGUCCGACGAUCAUGAUCCUGGGUGCCAGUGGUUUUUGCCAGAAGGGAAUGUAUAUUCUGGCCGGCUCGGUAAAGGCCUCUGGAGAUGGAGAAGACCCCUGGCUGCCAUUGACACUCUAGCCCAGGCCUAUGCAACAGAGGAUUGAGCAUCA
B11: 22262294_22262414_250_3pUTR_ENSG00000104635_ENST00000381237|human|control|control (ssRNA)
RNA: GGGAGUUCUACAGUCCGACGAUCGCCUUCAGCUGCUGCAGAGUGAGGCUGUCACCCUCGCCAUACCGAUGUAUUAGAUCCUGCAGGAAGGAGGCAGCGCUGAUAGCUGGUGCACCCAGGGAUGAAGCGUGAGCCUCAGGGGUGCAACAGAGGAUUGAGCAUCA
B12: chr1:23883277:23883278:-_ENSMUSG00000026155_ENSMUST00000027339|mus_hu|FALSE|FALSE (ssRNA)
RNA: GGGAGUUCUACAGUCCGACGAUCCUCCUUUUCUCUCUUUUUCUCUUCCUUUUUUUUUUCCUUUUCUUUAUUUGUAAUAGCUAUGGCAUUUUUAUCGUAGUAUUUCUUCUUUUCAUAUUUAUCUCUGAUGAAAAAUUCCACUGCCAACAGAGGAUUGAGCAUCA
B13: 33338675_33344321_3692_CDS_ENSG00000083642_ENST00000450460|human|control|control (ssRNA)
RNA: GGGAGUUCUACAGUCCGACGAUCUAAUUUCUCCUCCUGUUCUGUGACGGGCGUUUUUUUCCUGCCUCUAGGCUUCUCCAAUUCAGACCUUACAAGAUCAGAGUCGUCUCUCUUGUCACUUUUUUUCCCCGGCAAAGGUGAAGACAACAGAGGAUUGAGCAUCA
B14: chr8:113366719:113366720:-_ENSMUSG00000033732_ENSMUST00000042012|mus_hu|FALSE|FALSE (ssRNA)
RNA: GGGAGUUCUACAGUCCGACGAUCCAUAUUCUUAGAUGGCUGGUAUUCCAAAAUAACAAUUCGACCAGAGUCACUGCCAACUACAAUGUAGUCUUUGGUGCCACCUGUCAGCCUAAAGGCCAUGAGUGACCGGAUAACACCGAACAACAGAGGAUUGAGCAUCA
B15: chrX:118797523:118797524:-_ENSG00000125354_ENST00000360156|hu_hu|motif|central (ssRNA)
RNA: GGGAGUUCUACAGUCCGACGAUCCACGAUAGGCUUGUAGCUGUCCUCUUUGUUGAUCUGGUCCCCAAAGCCAACUGUGCGGACGAUCGUGAGCUUUAGCCUCACGUUGCUCUCUUGGAGGUCAUAGGUAUUAGACUGGAGCUGCAACAGAGGAUUGAGCAUCA
B16: chr9:122046571:122046572:+_ENSMUSG00000038145_ENSMUST00000120173|mus_mus|motif|central (ssRNA)
RNA: GGGAGUUCUACAGUCCGACGAUCCUGAAAUUUGUUGCUGAAGCCAAAGUCUGUCAACUUCACAAGACCUUGUUUUUCAAAAAAGACGGCAUUCUCUGGUUUCAAGUCUCUGUGGACCACAUGGAGUUUAUGGCAAUAAGAUAUCAACAGAGGAUUGAGCAUCA
B17: chr2:31148120:31148121:+_ENSMUSG00000062661_ENSMUST00000000199|mus_hu|FALSE|FALSE (ssRNA)
RNA: GGGAGUUCUACAGUCCGACGAUCGUCUUCUAGGACAGAAGGUAGUUGUUUUUUUUUCUUUUAAAACGUCUGUUCAAAAUAAAAAACAAAAGCACACGCGCAAGAGAGCGGGAGGAACGGAGGCUGCCUGCGAGGCAGCCAAGUCAACAGAGGAUUGAGCAUCA
B18: 135987530_135996469_154_CDS_ENSG00000160271_ENST00000372050|human|control|control (ssRNA)
RNA: GGGAGUUCUACAGUCCGACGAUCCGUGGAGCUCUCCGGGCGCGGCAGGUCGGGGUCUAGCUGCGUGAAGCUGUGCAGCACCACCGGGCAGCUGUCGGGGACGCCCACCUCCAGGCGCACGGCGUCCCACACGCUGCGGCUCCGCAACAGAGGAUUGAGCAUCA
B19: chr22:19452774:19452775:-_ENSG00000070010_ENST00000399523|hu_hu|hu_hu_hu_mus_False|38_48 (ssRNA)
RNA: GGGAGUUCUACAGUCCGACGAUCCUUCUCAUUGUAGUUGAUAGCAAUCACAUCUCCAGUCGUCAGACAGGCGAAGUUUCUCAAUGCGUUUUCUAAUACGGCUUUGGGGUUGGUAAUAUCCAGGAAGUCUGGGCUCUGAGGCUGCAACAGAGGAUUGAGCAUCA
B20: chr18:38101097:38101098:-_ENSMUSG00000024454_ENSMUST00000043498|mus_hu|FALSE|FALSE (ssRNA)
RNA: GGGAGUUCUACAGUCCGACGAUCGGUGCUGACAUCUGGAUGAAGUGUGAAGUCUGGGGCAAAGUACUCGAAGUAUUCACUAUAGGGAAGCUCCUCACUAAUGGCCUCUUCUACCAGCAGCGAUGUCUCAUAUGUCCAGCAGCGCAACAGAGGAUUGAGCAUCA
B21: chr2:73747330:73747331:-_ENSMUSG00000018770_ENSMUST00000018914|mus_mus|FALSE|FALSE (ssRNA)
RNA: GGGAGUUCUACAGUCCGACGAUCUCCAAUACCAGCACCAGAACCAGCAACUCCUACUGUUGCAGCACCUGCACCAAUGAAUUUGGCAGCAGUAUCAAUGUCUCUGCUGAUUACACUGGUCUGAAACUCCCUUCGGAUCAGCUGCAACAGAGGAUUGAGCAUCA
B22: 62400096_62400216_893_CDS_ENSG00000089597_ENST00000356638|human|control|control (ssRNA)
RNA: GGGAGUUCUACAGUCCGACGAUCGCCCAAGUCGCGAUGAGGGUUGUGUGCCAGGAGCACAGGCACAGACCCAUACAAGGCCAUUGGGUUGUACAGCUCAUACUGGAACACAUCCAAAUUGUAGAGGCGAUAUGGCUCCCCACCCAACAGAGGAUUGAGCAUCA

The other results are listed elsewhere or left out.

The target in this test is T1, UNK ZnF1-3 (human, UniProt Q9C0B0 31-174).
T1 sequence: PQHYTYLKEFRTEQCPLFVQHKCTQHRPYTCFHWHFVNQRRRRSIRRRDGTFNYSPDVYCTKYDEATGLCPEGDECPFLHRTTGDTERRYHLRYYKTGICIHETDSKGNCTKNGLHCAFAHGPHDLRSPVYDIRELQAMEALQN
The test can be described thus: nsRBNS (natural sequence RNA bind-n-seq); RBNS binding buffer (assumed for nsRBNS): 25 mM Tris pH 7.5, 150 mM KCl, 3 mM MgCl2, 0.01% Triton X-100, 500 ug/ml BSA, 20 U/ml SUPERase-In, 4 C; UNK is unkempt and MSI1 is Musashi-1; names of the RNAs are library labels; protein concentration not given here; high values mean tight binding.
Turning to B1, the binding signal worked out at 2.05 enrichment R.
Next, B2: 1.51 enrichment R; B3: 0.563 enrichment R.
In turn, B4 came in with a binding signal of 1.62 enrichment R.
The value for B5 was 1.1 enrichment R.
As for B6, the binding signal was 0.983 enrichment R.
Next, B7: 0.216 enrichment R.
The value for B8 was 0.783 enrichment R; that for B9 was 0.398 enrichment R; that for B10 was 0.732 enrichment R.
The value for B11 was 1.16 enrichment R; that for B12 was 0.285 enrichment R; that for B13 was 0.716 enrichment R.
In turn, B14 yielded a binding signal of 0.691 enrichment R.
Next, B15: 0.808 enrichment R; B16: 0.804 enrichment R; B17: 1 enrichment R.
Next, B18: 0.355 enrichment R; B19: 0.804 enrichment R.
The value for B20 was 0.945 enrichment R.
As to B21, the binding signal is 0.795 enrichment R.
In the case of B22, the binding signal was determined as 0.774 enrichment R.

The values are drawn from paper PMC12136788.
